From PubChem BioAssay AID1347165 (National Center for Advancing Translational Sciences (NCATS), 2019)
Among all 220,000 compounds or so, about 5,700 (2.6%) were called active. The inconclusive results got no clear call from the source; some entries with a clear call stand among them for comparison. The call rests on the fitted dose curve; in most records, active means well fitted inhibition curve with a large enough effect; inconclusive means small, poorly fitted or top-dose-only effect; inactive means no such curve, though single readings can be large or run the other way. Where the call is inconclusive, the potency comes from a doubtful curve fit.

Target: Lysine-specific demethylase 5B (Homo sapiens) (UniProt Q9UGL1)
Assay: Primary screen for KDM5B Histone Demethylases FDH-coupled qHTS; further: nearly all actives have a fitted effect of over 70% in size; on activity change, negative = inhibition: 0% is about no effect
Conditions: FDH-coupled NADH fluorescence (FDH is formaldehyde dehydrogenase); activity change, negative = inhibition: at 57.7 µM (top of the series) unless noted
Summary of the method: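 Here, H3K4me3 peptide (12.5 µM in substrate mix) is demethylated by KDM5BΔAP, 200 nM final, after 10 min compound exposure. Formaldehyde product is coupled through FDH (0.25 U/mL in mix) to NADH fluorescence; 30-min ΔRFU feeds dose-response curves.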
Potency means the concentration at half of the fitted maximal effect; tags describe the fitted curve by direction and shape.

UniProt Q9UGL1, sequence (Q9UGL1 whole entry, looked up): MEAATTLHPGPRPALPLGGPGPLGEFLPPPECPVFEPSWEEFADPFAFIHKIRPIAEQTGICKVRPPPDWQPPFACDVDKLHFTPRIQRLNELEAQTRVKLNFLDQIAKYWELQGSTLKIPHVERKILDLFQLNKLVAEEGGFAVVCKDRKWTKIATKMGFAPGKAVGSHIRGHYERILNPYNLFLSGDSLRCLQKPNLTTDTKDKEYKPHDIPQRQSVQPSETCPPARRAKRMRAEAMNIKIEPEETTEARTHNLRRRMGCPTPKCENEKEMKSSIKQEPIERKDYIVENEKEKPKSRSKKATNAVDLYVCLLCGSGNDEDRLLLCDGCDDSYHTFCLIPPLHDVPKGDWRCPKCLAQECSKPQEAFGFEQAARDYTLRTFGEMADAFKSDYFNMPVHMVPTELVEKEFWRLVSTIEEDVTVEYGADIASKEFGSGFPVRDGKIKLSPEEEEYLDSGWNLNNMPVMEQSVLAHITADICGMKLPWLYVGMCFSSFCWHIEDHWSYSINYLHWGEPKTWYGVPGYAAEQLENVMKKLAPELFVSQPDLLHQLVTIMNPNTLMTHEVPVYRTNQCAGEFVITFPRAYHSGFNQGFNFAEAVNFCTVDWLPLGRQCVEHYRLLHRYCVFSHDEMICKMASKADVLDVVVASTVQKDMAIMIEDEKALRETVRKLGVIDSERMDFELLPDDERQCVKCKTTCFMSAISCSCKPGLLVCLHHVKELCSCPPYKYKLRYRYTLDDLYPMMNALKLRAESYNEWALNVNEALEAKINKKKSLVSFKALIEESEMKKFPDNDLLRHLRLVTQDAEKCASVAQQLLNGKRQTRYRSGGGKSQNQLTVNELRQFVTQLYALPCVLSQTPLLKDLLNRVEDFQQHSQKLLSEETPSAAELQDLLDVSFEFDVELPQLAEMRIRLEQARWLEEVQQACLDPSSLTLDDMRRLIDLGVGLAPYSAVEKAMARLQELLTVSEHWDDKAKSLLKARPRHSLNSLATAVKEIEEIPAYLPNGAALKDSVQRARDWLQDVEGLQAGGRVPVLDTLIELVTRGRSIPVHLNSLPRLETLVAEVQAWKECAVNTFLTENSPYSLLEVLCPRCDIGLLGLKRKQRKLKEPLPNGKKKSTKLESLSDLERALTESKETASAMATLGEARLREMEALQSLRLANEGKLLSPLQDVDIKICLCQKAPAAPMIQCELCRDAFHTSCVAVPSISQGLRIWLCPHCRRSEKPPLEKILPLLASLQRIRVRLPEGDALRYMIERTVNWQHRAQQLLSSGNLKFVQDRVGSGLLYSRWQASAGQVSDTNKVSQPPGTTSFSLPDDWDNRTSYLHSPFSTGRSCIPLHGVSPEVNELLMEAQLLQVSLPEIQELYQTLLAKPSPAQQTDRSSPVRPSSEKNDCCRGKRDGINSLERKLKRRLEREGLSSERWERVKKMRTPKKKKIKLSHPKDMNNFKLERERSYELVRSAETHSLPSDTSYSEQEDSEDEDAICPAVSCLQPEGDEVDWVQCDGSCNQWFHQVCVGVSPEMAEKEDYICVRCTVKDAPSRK

Row | Compound | Potency | activity change, negative = inhibition
1 | COc1ccc(OC)c(NC(=O)N2CCC(OC3CCN(S(C)(=O)=O)CC3)CC2)c1 | inactive | 
2 | CCOC(=O)c1ccc(NC(=O)CCc2c(C)nc3c(c(C)nn3C(C)(C)C)c2C)cc1 | inconclusive: 39.8 µM [inhibitor, single point] | 
3 | CN1CC(=O)N(C2CNC2)Cc2c(NC3CC3)ncnc21 | inconclusive: 100 µM [inhibitor, partial curve, poor fit] | 
4 | N#Cc1ccccc1NC(=O)C1CCCC1 | inactive | 
5 | COc1ccc(S(=O)(=O)NCCc2sc(-c3cccc(C)c3)nc2C)cc1 | inconclusive: 15.8 µM [inhibitor, partial curve, poor fit] | 
6 | COc1ccc(CCNc2nc3ccccc3c3nc(-c4cccc(C)c4)nn23)cc1OC | inconclusive: 3.98 µM [inhibitor, full curve, poor fit] | 
7 | OCC1(CC2CC2)CCCN(c2nccc(C(F)(F)F)n2)C1 (centres undefined) | inactive | 
8 | Fc1ccc(-c2cnc3n[nH]c(-c4ccc5c(c4)OCO5)c3n2)cc1 | inactive | 
9 | COC(=O)C1=CN(C(C)C)C=C(C(=O)OC)C1c1ccc(C)s1 | inconclusive: 22.4 µM [inhibitor, partial curve, poor fit] | 
10 | CCCNC(=O)NC(=O)CN(Cc1cccs1)C1CC1 | inactive | 
11 | C/C(CCc1oc2ccc(C)cc2c1-c1ccc(C)o1)=N\O | inconclusive: 31.6 µM [inhibitor, partial curve, poor fit] | 
12 | Cc1cc2c(-c3cccnc3)nc(-c3c(C)noc3C)cc2[nH]1 | active: 28.2 µM | 
13 | O=C(Cn1nc(-c2ccco2)ccc1=O)Nc1ccccc1C(F)(F)F | inconclusive: 22.4 µM [inhibitor, partial curve, poor fit] | 
14 | O=C(N[C@H]1C[C@H]2C(=O)Nc3ccccc3C(=O)N2C1)c1ccccc1 | inactive | 
15 | Cc1ccc(F)cc1NC(=O)CCSc1nc(-c2ccco2)cc(C(F)(F)F)n1 |  | inconclusive: -189% [inhibitor] [at 11.5 µM]
16 | Cc1ccc(-c2ccc(O)cn2)c2cccnc12 | inconclusive: 15.8 µM [inhibitor, partial curve, poor fit] | 
17 | C[C@@H](NCc1cccc(Cl)c1)c1onc(-c2ccc(F)cc2)c1C(=O)O | inactive | 
18 | C=Cc1ccc(Cn2c(C(=O)O)c(CNCc3ccccc3)c3ccc(OC)cc32)cc1 | inconclusive: 14.1 µM [inhibitor, partial curve, poor fit] | 
19 | COC(=O)c1c(-c2cccs2)csc1NC(=O)c1cc(OC)c(OC)c(OC)c1 | inconclusive: 7.08 µM [inhibitor, partial curve, poor fit] | 
20 | CCN(CC)c1nc2ccccc2nc1C(=O)Nc1cccc(C)c1C | inactive | 
21 | COc1ccc(-n2ccn(CC(=O)Nc3ccc(C)c(C)c3)c(=O)c2=O)cc1OC | inconclusive: 17.8 µM [inhibitor, partial curve, poor fit] | 
22 | COc1ccc(-c2cn3c(n2)sc2cc(C(=O)Nc4ccc(F)cc4Cl)ccc23)cc1 | inconclusive: 3.16 µM [inhibitor, full curve, poor fit] | 

Row | Compound | Potency | activity change, negative = inhibition
23 | CN1CCC(Cn2ccc3c(N4CCOCC4)nc(-c4ccc5cn[nH]c5c4)cc32)CC1 | active: 35.5 µM | 
24 | COc1ccc(CNC(=O)Nc2ccccc2)cc1 | inactive | 
25 | Cc1ccc(-c2ccc3nnc(CNC(=O)C(C)Oc4ccccc4)n3n2)cc1C (centres undefined) | inconclusive: 17.8 µM [inhibitor, single point] | 
26 | COC[C@H]1CCCN1C(=O)CC[C@@H]1CNC(=O)[C@@H]2C[C@H](NCc3ccc(OC)cc3)CN12 | inconclusive: 22.4 µM [inhibitor, partial curve, poor fit] | 
27 | CCOc1ccc(CC(=O)NCCc2csc(-c3ccc(Cl)cc3)n2)cc1 | inconclusive: 35.5 µM [inhibitor, single point] | 
28 | O=C(Nc1ccc(F)cc1F)N1CC(c2nnc(-c3ccncc3)o2)C2(CCOCC2)C1 (centres undefined) | inactive | 
29 | N#Cc1ccccc1NC(=O)CSc1nncn1CCc1cccs1 | inactive | 
30 | Cc1ccc2nc(C(=O)N3CCN(c4ccccc4F)CC3)cn2c1 | inactive | 
31 | N#CC1(NC(=O)CSc2c(Cl)cccc2Cl)CCCCC1 | inactive | 
32 | CCc1ccc(Nc2sc(C(=O)c3ccccc3)c(N)c2S(C)(=O)=O)cc1 | inconclusive: 39.8 µM [inhibitor, single point] | 
33 | Cc1cc(CNC(=O)c2ccc3c(c2)n(CC2CC2)c(=O)n3C2CCCCC2)on1 | inconclusive: 22.4 µM [inhibitor, partial curve, poor fit] | 
34 | CN1CCC(C2CCN(C(=O)NC3CCCC3)C2)CC1 (centres undefined) | inactive | 
35 | Cc1nc(-c2ccccc2)n(Cc2nc(-c3ccc(Cl)cc3)oc2C)c(=O)c1CCO | inconclusive: 20 µM [inhibitor, single point] | 
36 | CC(=O)c1ccc(NC(c2ccc(F)cc2)c2nnc(-c3ccccc3)o2)cc1 (centres undefined) | inconclusive: 28.2 µM [inhibitor, partial curve, poor fit] | 
37 | CC(C)(C)OC(=O)N1CCC(c2c(C(=O)N3CCN(c4ccccn4)CC3)cnn2-c2ccccc2Cl)CC1 | inconclusive: 22.4 µM [inhibitor, partial curve, poor fit] | 
38 | CCOC(=O)Nc1ccc(N2CCn3c(nc4ccccc43)C2)cc1 | inactive | 
39 | COc1cccc(C(=O)NCC2CCCN(Cc3ccc(Cl)cc3)C2)c1OC (centres undefined) | inactive | 
40 | CC(C)c1noc(-c2cn(C3CCCN(C(=O)c4cccc5[nH]ccc45)C3)nn2)n1 (centres undefined) | active: 17.8 µM | 
41 | CN(Cc1ccccc1)C(=O)c1cccc(NC(=O)c2nsc3ccccc23)c1 | inconclusive: 39.8 µM [inhibitor, single point] | 
42 | O=C(c1nnc(CNc2ccc(F)cc2)n1-c1ccccc1)N1CCC[C@@H]1C(c1ccccc1)c1ccccc1 | inconclusive: 25.1 µM [inhibitor, partial curve, poor fit] | 
43 | COc1ccc(CNc2oc(/C=C/c3cccc(OC)c3)nc2C#N)cc1 | inconclusive: 14.1 µM [inhibitor, partial curve, poor fit] | 
44 | Cc1ccc(CN2CCN(Cc3ccc(=O)n(C)c3)CC2)cc1 | inconclusive: 20 µM [inhibitor, single point] | 
